# Publication PMC6919601, “Identification of Plasmodium dipeptidyl aminopeptidase allosteric inhibitors by high throughput screening” (PLoS ONE, 2019)
# Among all 110,000 compounds or so, about 230 (0.21%) showed an effect of 50% or more. The list shows a part of the results.
# Target: DPAP1 (Plasmodium falciparum, UniProt Q8IIJ9)
# Test: primary screen, percent inhibition; read by cleavage of a fluorogenic dipeptide substrate; higher = more effect of the substance
# Design: species or system P. falciparum D10 trophozoite lysates; single well
# 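Also: 30 min substrate incubation versus DMSO and 10 µM JCP410 controls.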
# DPAP1, sequence (Q8IIJ9 whole entry, looked up): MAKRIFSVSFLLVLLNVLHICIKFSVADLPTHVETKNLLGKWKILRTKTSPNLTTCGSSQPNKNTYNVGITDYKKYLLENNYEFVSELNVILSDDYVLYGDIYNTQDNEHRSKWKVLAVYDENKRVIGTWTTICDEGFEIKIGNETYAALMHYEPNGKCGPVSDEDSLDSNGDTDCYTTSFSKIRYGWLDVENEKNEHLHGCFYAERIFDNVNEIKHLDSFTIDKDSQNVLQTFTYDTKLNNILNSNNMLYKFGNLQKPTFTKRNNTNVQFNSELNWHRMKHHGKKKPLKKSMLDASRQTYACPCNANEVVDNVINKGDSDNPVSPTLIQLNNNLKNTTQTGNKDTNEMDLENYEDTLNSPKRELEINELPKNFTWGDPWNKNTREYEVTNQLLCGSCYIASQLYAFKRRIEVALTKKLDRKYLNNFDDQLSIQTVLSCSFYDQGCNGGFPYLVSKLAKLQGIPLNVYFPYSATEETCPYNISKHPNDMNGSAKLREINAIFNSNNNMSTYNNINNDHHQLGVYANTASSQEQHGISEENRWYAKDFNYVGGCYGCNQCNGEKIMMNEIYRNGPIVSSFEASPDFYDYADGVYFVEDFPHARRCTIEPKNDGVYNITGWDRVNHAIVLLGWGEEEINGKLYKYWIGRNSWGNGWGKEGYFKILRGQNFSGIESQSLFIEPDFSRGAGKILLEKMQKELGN
row,Structure (SMILES),% Inhibition @ 10 uM [%]
1,CC1CCN(c2c(S(=O)(=O)c3ccccc3)cnc3ccc(F)cc23)CC1,-5.2
2,O=C(O)c1ccc(SCc2ccccc2)cn1,-3.92
3,CCOC(=O)c1sc(N2C(=O)c3oc4ccccc4c(=O)c3C2c2cccc(O)c2)nc1C (stereo not drawn),0.189
4,O=C(c1ccncc1)c1cnc2ccccc2c1,6.98
5,Cc1csc(NC(=O)c2sc3nc4c(cc3c2N)N2CCC4CC2)n1,0.895
6,Cn1c(-c2nonc2NC(=O)c2ccc(C(C)(C)C)cc2)nc2ccccc21,3.05
7,O=C(NCc1ccccc1)/C(O)=C/C(=O)c1ccc(Cl)cc1,-2.55
8,NC(=O)c1c(NC(=O)COc2ccc3ccccc3c2Br)sc2c1CCCC2,-2.07
9,CC1CCN(S(=O)(=O)c2ccc3c(ccn3CC(=O)NCc3cccc(Cl)c3)c2)CC1,-0.177
10,COc1ccccc1NC(=O)c1ccc(CNS(=O)(=O)c2cccc(Cl)c2)cc1,5.69
11,CCOc1ccc(NC(=O)c2ccn(C)n2)cc1,-1.36
12,O=c1cccc2n1C[C@H]1C[C@@H]2CN(Cc2ccc(O)cc2)C1,-2.48
13,O=C(CSCc1cnn(-c2ccccc2)c1-n1cccc1)N1CCCC1,-5.15
14,Cc1nnc2c3ccccc3nc(N3CCN(Cc4ccccc4)CC3)n12,0.882
15,Cc1nn(CC(=O)NCCCc2ccccc2)c(=O)c2cccn12,-5.27
16,CC(C)n1cc(/C=C2/SC(=O)N(CC(=O)N3CCOCC3)C2=O)c2ccccc21,-4.52
17,Cc1nn(Cc2ccccc2)c(C)c1[N+](=O)[O-],0.989
18,CCN1C(=O)/C(=C\c2ccc(F)cc2)N=C1SCC(=O)NCc1ccccc1,2.68
19,CC(C)=CCCC(C)N1CC23C=CC(O2)C(C(=O)O)C3C1=O (stereo not drawn),-6.6
20,O=C(Cn1ncc2c3ccccc3n(Cc3ccccc3)c2c1=O)NCc1cccnc1,-3.35
21,COC(=O)c1ccc2c(c1)C(C)(C)C(/C=C/c1ccc3c(c1)OCO3)=[N+]2C,2.04
22,CCn1c(C)cc(/C=C2\SC(=O)N(CC(=O)Nc3ccc(C)cc3)C2=O)c1C,-1.46
23,Cc1oc2ncnc(NCC(C)C)c2c1C(=O)O,2.74
24,O=C(NCc1ccccn1)c1nnc(-c2ccc3c(c2)OCO3)o1,-1.38
25,CN(C)CCN(Cc1ccccc1)C(=O)Cc1noc2ccccc12,-0.788
26,c1ccc2c3c([nH]c2c1)CN(Cc1ccsc1)CC3,1.4

row,Structure (SMILES),% Inhibition @ 10 uM [%]
1,Cc1cc(C)c(C#N)c(Cl)n1,1.27
2,O=C1CC(C(=O)Nc2ccccc2)C(c2ccccc2)O1 (stereo not drawn),-0.999
3,CC(C)(C)c1ccc(C(=O)n2cc(Cl)cn2)cc1,-2.39
4,CN1C(=O)NC(c2cccc(F)c2)C2=C1CCCC2=O (stereo not drawn),-0.62
5,CCN1C(=O)CC(C(=O)Nc2ccc(C(=O)O)cc2)S/C1=N\c1cccc(F)c1 (stereo not drawn),-1.95
6,Nc1c(-c2nc(-c3ccc4c(c3)OCO4)no2)nnn1-c1ccccc1C(F)(F)F,1.66
7,Cc1ccc(-c2cc(C(=O)N3CCCCC3C)n[nH]2)cc1C (stereo not drawn),0.713
8,O=C(/C=C/c1c[nH]c2ccccc12)N1CCCCC1,-6.2
9,CC1CN(C)C(c2ccccc2)CC1=O (stereo not drawn),-6.25
10,Cc1nn(-c2ccccc2)c2c1C(c1cc(Br)ccc1F)C(C#N)=C(N)O2 (stereo not drawn),-2.77
11,CCOC(=O)C1=C(O)/C(=C\c2cccc(O)c2)N=C1C,-3.63
12,O=C(CCc1nnc2n(CCc3ccccc3)c(=O)c3ccccc3n12)NCCc1ccc(Cl)cc1,-0.326
13,NC(=O)NC(=O)Nc1ccc(Cl)cc1,-0.807
14,O=C1CCCC2=C1C(c1cccs1)CC(=O)N2c1nnc(SCc2ccccc2Cl)s1 (stereo not drawn),-4.73
15,Cc1nc2nc3[nH]c4ccccc4c3nn2n1,4.54
16,O=C(Cc1ccc(Cl)cc1)Nc1ccc(N2CCOCC2)cc1,-6.36
17,Cc1oc(-c2ccc(C(=O)NCCN3CCCCCC3)cc2)nc1CS(=O)(=O)c1ccccc1,-10.3
18,Cc1nc(Nc2nc3ccccc3s2)nc2c1CCC2,-0.519
19,CCCc1cc(C(=O)Nc2cnn(Cc3ccccc3C)c2)no1,-3.12
20,O=C(c1ccco1)N1CCN(C(=O)c2nc(-c3cccc(F)c3)n3c2CCCCC3)CC1,1.13
21,Nc1nc(-c2ccccc2O)cc(C(F)(F)F)n1,2.21
22,CCOC(=O)C1=C(c2ccccc2)N=C(S)NC1c1cc(Br)c(OC)cc1OC (stereo not drawn),6.23
23,OCC1CCCCN1Cc1cccc2ccccc12 (stereo not drawn),4.55
24,CCOc1cc(/C=C2/S/C(=N/c3ccccc3)N(CC)C2=O)ccc1O,-7.22
25,Cc1ccc(-c2nc3s/c(=C\c4ccc(F)cc4)c(=O)n3n2)cc1,-3.33
26,c1cc(-c2nc3ccccc3o2)nc(-c2nc3ccccc3o2)c1,0.628

row,Structure (SMILES),% Inhibition @ 10 uM [%]
1,O=C(c1ccc(F)cc1)N1CCN(c2ccc(N3CCOCC3)nn2)CC1,2.34
2,COc1cccc(/C=C2\C(=O)C3CCN2CC3)c1,-2.8
3,Cc1c(C)c(C)c(C=C2C(=O)c3ccccc3C2=O)c(C)c1C,0.98
4,Cc1ccc(CNC(=O)Cn2ncc3c(C)n(Cc4ccccc4)c(C)c3c2=O)cc1,5.91
5,CCC(C)c1ccc(OCCn2cccc2/C=C2/C(=N)N3C=CSC3=NC2=O)cc1 (stereo not drawn),0.275
6,Cc1ccc(CNC(=O)c2cc(-c3ccc(C)c(C)c3)[nH]n2)cc1,1.59
7,Clc1ccccc1-c1nc2ccccc2[nH]1,1.62
8,CCOC(=O)c1cnc2cc(Cl)c(C)cc2c1O,4.8
9,c1ccc(Cc2nn3c(-c4ccncc4)nnc3s2)cc1,5.82
10,COCCCNC(=O)N1CCC(CN2CCOCC2)CC1,3.7
11,Cc1ccc(CNS(=O)(=O)c2cc(-c3onc(C)c3C)ccc2C)cc1,-1.52
12,Cn1c(=O)[nH]c(=O)c2c1nc(N1CCN(c3ccc(F)cc3)CC1)n2Cc1ccccc1,-1.2
13,c1csc(-c2cnc3ccccc3n2)c1,-7.87
14,Cn1c(=O)c2ncn(CC(=O)NCCOCc3ccccc3Cl)c2n(C)c1=O,2.44
15,CC(C)(C)C1CCC(C(=O)Nc2ccc(C(=O)O)cc2)CC1 (stereo not drawn),13.2
16,CC(=O)Nc1csc2ccccc12,-6.83
17,O=C1C2C3C=CC(CC3)C2C(=O)N1c1ccc(F)cc1 (stereo not drawn),0.76
18,Cc1nn(-c2ccccc2)c(O)c1/C=N/c1ccc2[nH]c(O)nc2c1,1.01
19,CCS(=O)(=O)C1=NN2C(=N)/C(=C\c3cc(C)n(-c4ccc(C)cc4)c3C)C(=O)N=C2S1,0.208
20,Cc1ccc(NC(=O)C2CCCN2C(=O)OC(C)(C)C)cc1C (stereo not drawn),1.57
21,N=C1/C(=C/c2cn(CCCOc3ccccc3Cl)c3ccccc23)C(=O)N=C2SC=CN12,-1.6
22,CCOC(=O)c1c(C)[nH]c(C)c1S(=O)(=O)N(CCOC)Cc1cccs1,0.359
23,Cc1ccccc1Cn1c(SCc2ccc(C(=O)NCCN(C)C)cc2)nc2ccncc21,-1.92
24,CCN1C(=O)N/C(=C/c2cn(CC)c3ccccc23)C1=O,-4.69
25,O=C(c1cccc(F)c1)N1Cc2ccccc2-c2ccccc2C1=O,0.565
26,CC(C)c1nc(NCc2ccccc2)c(C#N)c2c1CCCC2,0.193

row,Structure (SMILES),% Inhibition @ 10 uM [%]
1,CCCN1CCC(N2CCN(c3ccc(Cl)cc3)CC2)CC1,1.57
2,O=C1CCCC2=C1C(c1cccc(Br)c1)Nc1ccc3ncccc3c12 (stereo not drawn),3.06
3,O=C1CN(S(=O)(=O)c2ccc3nc(O)ccc3c2)CC(=O)N1CCc1ccccc1,0.526
4,CCOCCCNc1nc2c(S(=O)(=O)c3c(C)cc(C)cc3C)nnn2c2ccccc12,-8.58
5,CCOc1ccc(C(=O)NC2CCCC2)cc1,2.36
6,Cc1ccc(C(=O)Nc2sc3c(c2C(=O)N2CCCCC2)CCC3)cc1,-0.67
7,Cc1cc(C)c(S(N)(=O)=O)c(C)c1,-7.42
8,O=C(O)CN1C(=O)/C(=C/c2ccc(Br)o2)SC1=S,1.27
9,O=C(O)c1cc(-c2ccccc2)nc2c(Cl)cccc12,-3.33
10,COc1cc(OC)cc(C(=O)N2CCC3(CC2)N=C(c2ccccc2)C(=O)N3)c1,6.99
11,CN(CC(=O)NC1CCCCC1)S(=O)(=O)c1ccc(Br)s1,0.559
12,CC(C)(C)OC(=O)N1CCC(c2c(C(=O)N3CCOCC3)cnn2-c2ccc(F)cc2F)CC1,-1.79
13,Cc1sc2nc(-c3cc(Cl)ccc3O)nc(O)c2c1C,-5.16
14,COC(=O)c1cc2occc2n1Cc1c(C)cc(C)cc1C,2.06
15,CCOC(=O)c1c(NC(=O)CNC2CCCCC2)sc2c1CCCC2,-0.415
16,O=c1cccc2n1CC1CC2CN(c2ccc3nnc(-c4ccccc4)n3n2)C1 (stereo not drawn),-4.85
17,Oc1nc2cc(Br)cnc2[nH]1,4.08
18,Cc1ccc(Cl)cc1NC(=O)CSc1nc2ccc(N)cc2s1,2.45
19,CC(C)C[C@H](NC(=O)N1CCN(c2ccc([N+](=O)[O-])cc2)CC1)C(=O)NCC#N,4.33
20,O=C(c1ccc(F)cc1)c1ccc(F)cc1,-5.07
21,COc1ccccc1N1CCN(Cc2ccc(F)cc2F)CC1,1.55
22,Cc1ccccc1N1C(=O)C(Cl)=C(N2CCCCC2)C1=O,-0.661
23,COc1ccc(CSc2nnnn2-c2ccc(C(=O)O)cc2)cc1,-0.142
24,O=C(Cn1cnc2c(nnn2-c2ccc(F)cc2)c1=O)NCc1ccc2c(c1)OCO2,-7.71
